The supplement of paper PMC8007513
Where a name gives a salt, the structure may show the parent alone. ± gives the standard error. The whole screen tested about 1,300 compounds, of which about 75 (6%) showed an effect of 50% or more. The list shows a part of the results.

System: Trichoderma virens ATCC 9645
Experiment: growth yield (OD600) relative to untreated control; higher = less growth inhibition
Conditions: compound concentration: 100 uM
How it was run: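 A biocide at 200 ng ml^−1 was co-applied to some wells, and library compounds were present in all test wells at 100 μM final. The wells held 100 μl of Trichoderma virens ATCC 9645 spores at 15,000 spores ml^−1 in potato dextrose broth, grown at 30 °C in 96-well plates, with OD600 read at 40 h and 72 h. Results are relative growth against the control without either agent, averaged across duplicate screens.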

SMILES	growth yield (40 h) [%]	growth yield (72 h) [%]
C1CCC(C(CC2CCCCN2)C2CCCCC2)CC1 (stereo not drawn) [Perhexiline maleate]	86.9 ± 7.5	104 ± 6.6
CC(C)NCC(O)COc1ccc(CCOCC2CC2)cc1 (stereo not drawn) [Betaxolol hydrochloride]	95 ± 1.9	98.8 ± 3.1
CC(=O)[C@@]1(O)CC[C@H]2[C@@H]3C[C@H](C)C4=CC(=O)C=C[C@]4(C)[C@@]3(F)[C@@H](O)C[C@@]21C [Fluorometholone]	88.3 ± 4.1	87.3 ± 4.8
CCc1nc(N)nc(N)c1-c1ccc(Cl)cc1 [Pyrimethamine]	104.2 ± 0.95	105 ± 2.6
C#C[C@]1(OC(C)=O)CC[C@H]2[C@@H]3CCC4=CC(=NO)CC[C@@H]4[C@H]3CC[C@@]21CC (mixture of isomers) [Norgestimate]	117 ± 3.3	112 ± 3.9
CC(=O)O[C@]1(C(C)=O)CC[C@H]2[C@@H]3C=C(Cl)C4=CC(=O)[C@@H]5C[C@@H]5[C@]4(C)[C@H]3CC[C@@]21C [Cyproterone acetate]	105.8 ± 0.64	101 ± 2.4
Clc1ccc(CO/N=C(\Cn2ccnc2)c2ccc(Cl)cc2Cl)c(Cl)c1 [Oxiconazole Nitrate]	1.59 ± 1.6	0.839 ± 0.84
O=C(O)COCCN1CCN(C(c2ccccc2)c2ccc(Cl)cc2)CC1 (stereo not drawn) [Cetirizine dihydrochloride]	102 ± 1.1	103.2 ± 1.4e-14
N[C@@H]1CONC1=O [D-cycloserine]	107.7 ± 0.32	103 ± 1.1
COc1cc2nc(N(C)CCCNC(=O)C3CCCO3)nc(N)c2cc1OC (stereo not drawn) [Alfuzosin hydrochloride]	104.7 ± 0.79	105 ± 3.6
Clc1ccc(Cn2c(CN3CCCC3)nc3ccccc32)cc1 [Clemizole hydrochloride]	100 ± 2.2	104 ± 2
CC(=O)Oc1ccccc1C(=O)O [Acetylsalicylic acid]	93.4 ± 3.5	84.7 ± 2.3
N=C(N)NS(=O)(=O)c1ccc(N)cc1 [Sulfaguanidine]	106 ± 4.3	104 ± 3
CC1=C(/C=C/C(C)=C/C=C/C(C)=C/C(=O)O)C(C)(C)CCC1 [Retinoic acid]	98.2 ± 3.8	97.6 ± 2
NC(=O)c1cc[n+](CC2=C(C(=O)[O-])N3C(=O)[C@@H](NC(=O)[C@@H](c4ccccc4)S(=O)(=O)O)[C@H]3SC2)cc1 [Cefsulodin sodium salt]	95 ± 4.8	99.3 ± 3.2
CCc1c(C)[nH]c2c1C(=O)C(CN1CCOCC1)CC2 (stereo not drawn) [Molindone hydrochloride]	98 ± 0.79	93.97 ± 0.84
CCC1(c2ccccc2)NC(=O)N(C)C1=O (stereo not drawn) [Mephenytoin]	110 ± 4.9	102 ± 4.5
Cc1ncc(CO)c(CO)c1O [Pyridoxine hydrochloride]	101.5 ± 0.16	103.3 ± 0.52
C[C@]12CC[C@@H]3c4ccc(O)cc4CC[C@H]3[C@@H]1CC[C@@H]2O [Estradiol-17 beta]	79.6 ± 14	81.4 ± 14
CCCN(CCC)S(=O)(=O)c1ccc(C(=O)O)cc1 [Probenecid]	90.1 ± 4	89.9 ± 2.6
COc1ccc2[nH]c([S+]([O-])Cc3ncc(C)c(OC)c3C)nc2n1 (stereo not drawn) [Tenatoprazole]	98.8 ± 4.8	102 ± 1.6
CN(C)CCOC(c1ccccc1)c1ccccc1 [Diphenhydramine hydrochloride]	99.9 ± 5.2	99.4 ± 3.1

SMILES	growth yield (40 h) [%]	growth yield (72 h) [%]
CC(=O)[C@H]1CC[C@H]2[C@@H]3CCC4=CC(=O)CC[C@]4(C)[C@H]3CC[C@]12C [Progesterone]	69.3	81.8
NC(Cc1cc(I)c(Oc2cc(I)c(O)c(I)c2)c(I)c1)C(=O)O (stereo not drawn) [Thyroxine (L)]	98 ± 2.1	94.5 ± 3.9
CN(C)CC/C=C1/c2ccccc2Sc2ccc(Cl)cc21 [Chlorprothixene hydrochloride]	70.5 ± 6.3	90.8 ± 2.7
N=C(N)NC(=O)Cc1c(Cl)cccc1Cl [Guanfacine hydrochloride]	97.1 ± 1.4	101.3 ± 0.63
CN1C(=O)CC(c2ccccc2)C1=O (stereo not drawn) [Phensuximide]	102 ± 5.1	97 ± 3.7
Nc1ccn([C@@H]2O[C@H](CO)[C@@H](O)C2(F)F)c(=O)n1 [Gemcitabine]	101 ± 1.6	100 ± 0.42
CN(C)CCN(Cc1ccccc1)c1ccccn1 [Tripelennamine hydrochloride]	107 ± 1.4	100 ± 1.6
CC1CNc2c(cccc2S(=O)(=O)N[C@@H](CCCNC(=N)N)C(=O)N2CC[C@@H](C)C[C@@H]2C(=O)O)C1 (stereo partly drawn) [Argatroban]	104 ± 4.9	101 ± 3.4
CC(=O)O[C@@]12CO[C@@H]1C[C@H](O)[C@@]1(C)C(=O)[C@H](O)C3=C(C)[C@@H](OC(=O)[C@H](O)[C@@H](NC(=O)OC(C)(C)C)c4ccccc4)C[C@@](O)([C@@H](OC(=O)c4ccccc4)[C@H]21)C3(C)C [Docetaxel]	106 ± 1.4	101.3 ± 0.21
Clc1ccc(CSC(Cn2ccnc2)c2ccc(Cl)cc2Cl)cc1 (stereo not drawn) [Sulconazole nitrate]	2.22 ± 0.64	1.78 ± 0.52
Fc1ccc(C(c2ccc(F)cc2)N2CCN(C/C=C/c3ccccc3)CC2)cc1 [Flunarizine dihydrochloride]	93.9 ± 4.3	114 ± 2.4
CCCCC(=O)O[C@H]1CC[C@H]2[C@@H]3CCc4cc(O)ccc4[C@H]3CC[C@]12C [Estradiol Valerate]	101 ± 8.9	94.6 ± 3.8
N=C(N)c1ccc(OCCCCCOc2ccc(C(=N)N)cc2)cc1 [Pentamidine isethionate]	1.91 ± 0.95	1.78 ± 0.52
Cn1c(NCCN(CCO)CCCc2ccc([N+](=O)[O-])cc2)cc(=O)n(C)c1=O [Nifekalant]	97.69 ± 0.48	96.17 ± 0.73
OCCOCCN1CCN(C2=Nc3ccccc3Sc3ccccc32)CC1 [Quetiapine hemifumarate]	108 ± 15	106 ± 12
CCC(=O)O[C@@H](O[P@](=O)(CCCCc1ccccc1)CC(=O)N1C[C@H](C2CCCCC2)C[C@H]1C(=O)O)C(C)C [Fosinopril]	109.8 ± 0.48	103 ± 3.5
COc1cccc2c1C(=O)c1c(O)c3c(c(O)c1C2=O)C[C@@](O)(C(=O)CO)C[C@@H]3O[C@H]1C[C@H](N)[C@H](O)[C@H](C)O1 [Doxorubicin hydrochloride]	81.6	92.3
CC1(C)S[C@@H]2[C@H](NC(=O)[C@H](N)c3ccc(O)cc3)C(=O)N2[C@H]1C(=O)O [Amoxicillin]	105 ± 1.1	109 ± 2.1
CN[C@@H]1[C@H](O[C@H]2[C@H](O[C@H]3[C@H](O)[C@@H](O)[C@H](N=C(N)N)[C@@H](O)[C@@H]3N=C(N)N)O[C@@H](C)[C@]2(O)C=O)O[C@@H](CO)[C@H](O)[C@H]1O [Streptomycin sulfate]	103 ± 1.3	104.35 ± 0.1
Nc1nc(Cl)nc2c1ncn2[C@H]1C[C@H](O)[C@@H](CO)O1 [Cladribine]	106 ± 1.1	103 ± 1.3
CCCCCCC[N+](CC)(CC)CCCCc1ccc(Cl)cc1 [Clofilium tosylate]	87.2 ± 1.4	101 ± 0.52
CNCCCC1c2ccccc2C=Cc2ccccc21 [Protriptyline hydrochloride]	101 ± 1.6	104 ± 2

SMILES	growth yield (40 h) [%]	growth yield (72 h) [%]
C[C@]12CCC(=O)C=C1CC[C@@H]1[C@@H]2[C@@H](O)C[C@@]2(C)[C@H]1CC[C@]2(O)C(=O)CO [Hydrocortisone base]	99 ± 3.6	98.2 ± 2.5
Oc1ncnc2[nH]ncc12 [Allopurinol]	102	98.3 ± 1.4
Cc1onc(-c2ccccc2)c1-c1ccc(S(N)(=O)=O)cc1 [Valdecoxib]	107 ± 11	104 ± 8.3
COc1ccc(CCN(C)CCCC(C#N)(c2ccc(OC)c(OC)c2)C(C)C)cc1OC (stereo not drawn) [Verapamil hydrochloride]	77.2 ± 3.5	74.4 ± 2.8
CCCc1cc(=O)[nH]c(=S)[nH]1 [Propylthiouracil]	104 ± 0.48	101 ± 2
C[N+]1(CCCCC[N+]2(C)CCCC2)CCCC1 [Pentolinium bitartrate]	102 ± 3	102 ± 3
CN(C)CCCN1c2ccccc2Sc2ccccc21 [Promazine hydrochloride]	91.33 ± 0.16	95.6
Cc1cc(C(C)(C)C)c(O)c(C)c1CC1=NCCN1 [Oxymetazoline hydrochloride]	101 ± 2.1	102.9 ± 0.73
NS(=O)(=O)c1cc(C(=O)O)cc(N2CCCC2)c1Oc1ccccc1 [Piretanide]	109 ± 3.6	104 ± 1.7
COc1ccc([C@@H]2CC(=O)c3c(O)cc(O[C@@H]4O[C@H](CO[C@@H]5O[C@@H](C)[C@H](O)[C@@H](O)[C@H]5O)[C@@H](O)[C@H](O)[C@H]4O)cc3O2)cc1O [Hesperidin]	99.43 ± 0.95	99.42 ± 0.84
CC(C)(C(=O)O)c1ccc(C(O)CCCN2CCC(C(O)(c3ccccc3)c3ccccc3)CC2)cc1 (stereo not drawn) [Fexofenadine hydrochloride]	101 ± 4	97.6 ± 3
Cc1c(C)c2c(c(C)c1O)CCC(C)(COc1ccc(CC3SC(=O)NC3=O)cc1)O2 (stereo not drawn) [Troglitazone]	102 ± 5.9	92.9 ± 1.3
COC(c1ccccc1)(c1ccccc1)[C@H](Oc1nc(C)cc(C)n1)C(=O)O [Ambrisentan]	98.48 ± 0.32	99.63 ± 0.63
CSc1ccc2c(c1)C(N1CCN(C)CC1)Cc1ccccc1S2 (stereo not drawn) [Methiothepin maleate]	43.5 ± 3.5	75.4 ± 3.2
CC(C(=O)O)c1ccc2c(c1)Cc1cccnc1O2 (stereo not drawn) [Pranoprofen]	91.2 ± 1.6	90.3 ± 0.1
COC(=O)Nc1nc2cc(C(=O)c3ccccc3)ccc2[nH]1 [Mebendazole]	89.4 ± 6.2	93.1 ± 3.8
CC1(C)S[C@@H]2[C@H](NC(=O)[C@H](NC(=O)N3CCNC3=O)c3ccccc3)C(=O)N2[C@H]1C(=O)O [Azlocillin sodium salt]	96.26 ± 0.32	94.81 ± 0.21
CC(C)c1ccc2oc3nc(N)c(C(=O)O)cc3c(=O)c2c1 [Amlexanox]	89 ± 0.95	91.56 ± 0.52
Cc1cc2c(cc1S(N)(=O)=O)S(=O)(=O)CCC2 [Meticrane]	101 ± 1.6	98.37 ± 0.21
NCCNCCNCCNCCN [Tetraethylenepentamine pentahydrochloride]	103 ± 2.5	99.8 ± 2.9
